Data taken from PubChem BioAssay AID1346428 (National Center for Advancing Translational Sciences (NCATS), 2018).
Several values for one entry are separate records, joined by “and”; a condition that tells them apart may be missing. Equal entries are not always repeated. Screen size: about 48,000 compounds; about 1,200 (2.5%) were called active. Another 2% or so got no clear call; they are omitted.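 The calls were made as follows: active = activation of at least 60% and not above a set upper limit (about 1 call in 100 departs from these limits); inconclusive = activation of 40% to 60%, or above that upper limit; inactive = activation under 40%.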 The list shows a part of the results.

target: Probable G-protein coupled receptor 32 (Homo sapiens) (UniProt O75388); assay: qHTS for Agonists of Human Resolvin D1 Receptor DRV1; details: CHO-K1 GPR32 beta-arrestin PathHunter luminescence, 90 min; at 76.9 µM; hits give high values; zero percent set by DMSO-only wells; also: 0% is about no effect
Sequence of UniProt O75388 (O75388 whole entry, looked up): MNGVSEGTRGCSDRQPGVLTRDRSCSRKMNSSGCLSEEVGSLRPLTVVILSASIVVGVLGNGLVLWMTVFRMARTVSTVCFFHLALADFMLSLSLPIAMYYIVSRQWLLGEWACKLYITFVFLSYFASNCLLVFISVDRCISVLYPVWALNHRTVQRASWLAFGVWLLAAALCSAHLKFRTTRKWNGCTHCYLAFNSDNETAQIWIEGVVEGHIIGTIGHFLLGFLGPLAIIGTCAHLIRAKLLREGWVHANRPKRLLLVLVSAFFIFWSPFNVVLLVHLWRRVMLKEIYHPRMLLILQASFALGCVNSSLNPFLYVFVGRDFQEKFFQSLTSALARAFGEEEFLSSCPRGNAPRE
Outline: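 Luminescent readout of beta-Gal complementation quantifies ligand-induced beta-arrestin association with GPR32 in CHO-K1 cells; 90 min compound incubation at 37 °C, detection 1 h at room temperature.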

activation, inactive:
COc1ccc(-c2nc3c4ccccc4n(CC(=O)Nc4cc(F)ccc4F)c(=O)n3n2)cc1 13.7%
CCCCC(=O)Nc1ccccc1C(=O)OCc1cc(=O)n2nc(C3CCCCC3)sc2n1 -8.68%
COc1ccc(-c2cc(C(F)(F)F)n3nc(C(=O)Nc4cc(Cl)cc(Cl)c4)cc3n2)cc1 -11.7%
COc1cc(-c2ccno2)ccc1S(=O)(=O)N1CCN(c2ccc(C(C)=O)cc2)CC1 3.66%
COc1ccc(N2CCN(S(=O)(=O)CCNC(=O)Cc3ccc(Cl)cc3)CC2)cc1 -3.04%
CCOC(=O)C1CCN(C(=O)Cn2nc(C)n3c(cc4cc(F)ccc43)c2=O)CC1 36.5%
CCn1cc(S(=O)(=O)c2cc(C)cc(C)c2)c(=O)c2cc(F)c(N3CCCC3)cc21 -10.3%
CCOc1ccc(CCNC(=O)c2nnc(Cc3cc(OC)c(OC)c(OC)c3)o2)cc1OCC 5.86%
CCCCN1C(=O)CN(C2CCCCCC2)C(=O)C1c1ccc(OCCC)c(OC)c1 (configuration not stated) -14.6%
COC(=O)c1c(-c2ccc(Cl)cc2)noc1N1CCN(c2ccc(C)cc2C)CC1 -4.58%
CC(C)c1ccc(NC(=O)C2CCCN(S(=O)(=O)c3cccc4cccnc34)C2)cc1 (configuration not stated) -15.5%
CCCCN(C)CCCNC(=O)C1CCN(c2nc3ccc(CC)cc3s2)CC1 4.94%
COc1ccc(OC)c(NC(=O)c2noc3c2CCCC3)c1 -23.8%
CCOC(=O)Cc1ccc(NC(=O)N2CCOc3ccc(C)cc32)cc1 -24.5%
CCOC(=O)c1cc(S(=O)(=O)N2CCN(c3ccccc3)CC2)[nH]n1 -25.8%
CCOC(=O)Cn1c(=O)oc2cc(S(=O)(=O)N3CCN(c4cccc(C)c4C)CC3)ccc21 5.1%
Cc1ccc2nc(N(Cc3cccnc3)C(=O)COc3ccccc3)sc2c1 -11.2%
O=C(Nc1c(Cl)cccc1Cl)c1cc(-c2ccc3c(c2)OCO3)on1 2.98%
Cc1ccc(OC(C)C(=O)Nc2nonc2-c2ccc(Br)cc2)cc1C (configuration not stated) -4.28%
CCc1nnc2c3ccccc3nc(Nc3ccc(C(C)=O)cc3)n12 2.48%
COc1cc(OC)c(OC)cc1/C=C/c1nc2cc3ccccc3cc2c(=O)n1-c1ccc(Cl)cc1 -12.1%
CCOc1ccccc1NC(=O)CSc1nc2c(oc3ccccc32)c(=O)n1-c1ccc(C)c(C)c1 -23.7%
Cc1ccc(Nc2c(-c3c[nH]c4ccccc34)nc3cc(C)ccn23)cc1 -6.82%
COc1ccc(C(=O)NCC(c2cccnc2)N2CCc3ccccc32)cc1 (configuration not stated) -25.5%
CCOC(=O)c1c(N)n(-c2ccc(C)c(Cl)c2)c2nc3ccccc3nc12 -7.22%
Cc1ccc(Oc2c(C(F)(F)F)oc3c(CN4CCCCC4C)c(O)ccc3c2=O)cc1 (configuration not stated) -24.6%
COc1ccc(-c2nn3c(=O)cc(CN4CCN(C(=O)c5ccc(C(C)(C)C)cc5)CC4)nc3s2)cc1 7.8%
CC(C)OCCCNC(=O)c1ccc2c(c1)N(Cc1c(F)cccc1Cl)C(=O)c1ccccc1S2 -31.7%
CCOC(=O)CC(NS(=O)(=O)c1ccc2[nH]c3c(c2c1)CCCC3)c1ccccc1Cl (configuration not stated) 37.1%
CC1=C(c2ccc(C)c(C)c2)S(=O)(=O)N(Cc2ccc(C(=O)NCc3cccc(C)c3)cc2)C1=O -16.7%
O=C(CCC1N=C2c3ccccc3N=C(SCc3ccc(F)cc3)N2C1=O)NCc1cccs1 (configuration not stated) -9.75%
Cc1cccc(NC(=O)c2oc3ccccc3c2NC(=O)Cc2coc3c(C)c(C)ccc23)c1 -0.207%
CCC(C(=O)Nc1cc(Cl)ccc1OC)n1nc(-c2ccccc2)ccc1=O (configuration not stated) 0.499%
COc1ccc2c(c1OC)C(=O)O[C@@H]2[C@H]1c2c(cc3c(c2OC)OCO3)CCN1C -7.71% and -19.6%
COc1cc(C(=O)Nc2ccc3nc(SCc4ccc(C)cc4)sc3c2)cc(OC)c1OC -8.37%
CC(C)(C)OC(=O)N1CCC(c2c(C(=O)N3CCN(C(=O)c4ccco4)CC3)cnn2-c2cccc(F)c2)CC1 -11.5%
CCOc1ccc(-n2c(SCC(=O)N3CCOCC3)nc3c([nH]c4ccccc43)c2=O)cc1 -8.89%
CC(=O)c1ccc(S(=O)(=O)Nc2cccc(-c3ccc(N4CCCCCC4)nn3)c2)cc1 -8.37%
CCCC(=O)N1CCN(c2nc3c(OC)ccc(C)c3s2)CC1 2.38%
CCN(c1ccccc1)S(=O)(=O)c1nnc(NC(=O)c2cccs2)s1 49%
Cc1ccc(C)c(Nc2nnc(-n3nc(C)cc3C)c3ccccc23)c1 1.57%
O=C(Nc1cccc(F)c1)c1ccc2snnc2c1 -4.25%
Cc1ccc(-n2nc(C(=O)N3CCC(C)CC3)c(=O)n(C)c2=O)cc1 -4.43%
O=C(NCc1ccc(Cl)cc1)c1cnc(N2CCCCC2)c2ccccc12 -11.9%
Cc1cccc(N2CCN(CCNC(=O)C3COc4ccccc4C3)CC2)c1C (configuration not stated) -5.76%
O=C(O)c1cc(-n2c(/C=C\c3ccc(F)cc3)nc3ccccc3c2=O)ccc1Cl -10.9%
Cc1ccc(CNC(=O)C(CC(C)C)NS(=O)(=O)c2ccc3c(c2)oc(=O)n3C)cc1 (configuration not stated) -6.66%
CSc1ccc(CCNC(=O)CCc2c(C)nc3c(c(C)nn3-c3ccccc3)c2C)cc1 16%
O=C(NC1CC(=O)N(c2cccc(F)c2)C1)c1ccc(Br)o1 (configuration not stated) -0.782%
COc1ccc(CNC(=O)C2CCN(Cc3nc(-c4ccc(Cl)cc4)oc3C)CC2)cc1 7.36%
Cc1ccc(S(=O)(=O)NCCS(=O)(=O)N2CCN(c3ccccc3)CC2)cc1 -7.53%
Cc1nc(N2CCOCC2)c2c(C(=O)Nc3cccc(C(F)(F)F)c3)c(C)oc2n1 -5.82%
Cc1ccc(Cc2nc3ccccc3nc2SCC(=O)Nc2ccc3c(c2)OCO3)cc1 -9.19%
CC(=O)c1ccc(NC(=O)CCSc2nc(-c3ccco3)cc(C(F)(F)F)n2)cc1 7.78%
Cc1c(S(=O)(=O)c2cccc(Cl)c2)nnn1-c1cccc(C(F)(F)F)c1 -11.3%
Cc1ccc(-n2ncc(C(=O)NCc3ccccc3C)c2-n2cccc2)cc1 -6.6%
O=C(NCc1ccc2c(c1)CCN2C(=O)c1ccc(F)cc1)c1cc2ccccc2[nH]1 -15.6%
COc1ccc(-c2[nH]c3ccccc3c2SCCNC(=O)c2cc(OC)c(OC)c(OC)c2)cc1 -18.7%
COc1ccccc1CNC(=O)CCC(=O)N1CC2CCCN2c2ccccc21 (configuration not stated) 6.67%
O=C(Cc1ccc(Cl)cc1)Nc1ccc2nn(-c3ccc(Cl)cc3)nc2c1 -6.27%
Cc1cccc(C)c1OCCn1c(C2CC(=O)N(c3cccc(Cl)c3)C2)nc2ccccc21 (configuration not stated) -6.04%
COc1cccc(NC(=O)C2CCCN(S(=O)(=O)c3c(C)nn(C)c3C)C2)c1 (configuration not stated) 11.1%
COc1ccc(SCc2cc(=O)c3cc(Cl)ccc3[nH]2)cc1 22.8%
c1ccc(CNc2nc3c(-c4ccccc4)nnn3c3ccccc23)cc1 6.26%
CCOc1ccc(OCC)c(NS(=O)(=O)c2cc(-c3cc(C)no3)ccc2C)c1 -20.5%
Cc1ccc(CNC(=O)c2ccc(Cn3c(=O)c4ccccc4n(CC(=O)Nc4ccc(C)cc4C)c3=O)cc2)cc1 -8.07%
CCc1ccccc1N1C(=O)N(Cc2ccc(C#N)cc2)c2ccccc2S1(=O)=O -15.1%
CC(C)Sc1oc(-c2cccs2)nc1S(=O)(=O)c1ccc(Cl)cc1 -30.5%
NC(N)=NC(N)=NCCc1ccccc1 -22.7%
CCn1c2ccccc2c2cc(CN3CCN(Cc4ccccc4F)CC3)ccc21 -31.5%
CCOc1ccc(CCNC(=O)c2cn(CC)c3ccc(S(=O)(=O)N4CCc5ccccc5C4)cc3c2=O)cc1OCC -10.1%
CCOc1ccc(S(=O)(=O)NCCc2sc3nc(-c4ccc(F)cc4)nn3c2C)cc1 -11%
CCc1ccc(NCc2cc3cc4c(cc3n(CC(=O)Nc3ccc(C)cc3)c2=O)OCO4)cc1 -34.5%
CCC(=O)Oc1ccc(/C=C(\C#N)c2nc3ccccc3[nH]2)cc1OC 31%
COc1ccc(-c2cc(C(F)(F)F)nc(S(=O)(=O)CCCC(=O)Nc3cccc(O)c3)n2)cc1OC -17.5%
CCOc1ccccc1NC(=O)C(=O)NCCc1sc(-c2cccc(F)c2)nc1C -4.47%
Cc1oc2ncnc(N3CCCCC3)c2c1C(=O)N1CCN(c2cccc(C(F)(F)F)c2)CC1 27.9%
CCOc1ccc(NC(=O)NCc2c(-n3cccc3)sc3c2CCCC3)cc1 5.39%
CCOc1ccc(NC(=O)C2CCCN(S(=O)(=O)c3cccc4nonc34)C2)cc1 (configuration not stated) 21.4%
Cc1ccc(Nc2c(-c3cccs3)nc3nc(C)cc(C)n23)cc1 -23.2%
CC(=O)c1ccc(NC(=O)CSc2nnc3ccc(-c4ccc(Cl)cc4)nn23)cc1 -2.73%
COc1ccc(Cl)cc1C(=O)Nc1sc2c(c1C(=O)OC(C)C)CCCC2 9.22%
